Structures can show the parent of a compound that is named as a salt. The list shows a part of the results. Many values rest on one well or one pass, so single values are uncertain.

The subject of the assay is Ov4Carbo. Nature of the assay: log2 surviving fraction (library drug vs vehicle, or drug + carboplatin vs carboplatin alone; relative to plate median); ovarian cancer lines: OVCAR4 is platinum-sensitive and Ov4Carbo platinum-resistant; higher = more cell survival. The settings on record: library drug concentration 10 µM; 7 days; carboplatin co-treatment 0 µM.
For the compound `CC(=O)/N=c1/sc(S(N)(=O)=O)nn1C` [Methazolamide], the log2 surviving fraction is -0.451.
As to `C[C@@H]1CCN(C(=O)CC#N)C[C@@H]1N(C)c1ncnc2[nH]ccc12`, the log2 surviving fraction was 0.0902.
Consider `C[C@@H](O)[C@H]1C(=O)N2C(C(=O)[O-])=C(SC3Cn4cnc[n+]4C3)[C@H](C)[C@H]12` (some centres undefined) [Biapenem], for which the log2 surviving fraction turned out to be 0.612.
To `Clc1ccc(C(Cn2ccnc2)OCc2c(Cl)cccc2Cl)c(Cl)c1` (centres undefined) [Isoconazole nitrate (Travogen)] belongs -1.09; to `COc1cc(NS(=O)(=O)c2ccc(N)cc2)nc(OC)n1` [Sulphadimethoxine], -0.305; to `O=C(O)c1cc(/N=N/c2ccc(O)c(C(=O)O)c2)ccc1O` [olsalazine sodium], 0.428.
Regarding `C=CCOc1ccccc1OCC(O)CNC(C)C` (centres undefined) [Oxprenolol HCl], the log2 surviving fraction is -0.56.
Consider `COc1ccc(/C=C/C(=O)Nc2ccccc2C(=O)O)cc1OC`, for which the log2 surviving fraction was 0.931.
For the compound `C[C@H](NC(=O)Cc1cc(F)cc(F)c1)C(=O)N[C@H](C(=O)OC(C)(C)C)c1ccccc1`, the log2 surviving fraction is -0.681.
The same measure for `CN(C)[C@@H](CCOc1cccc2ccccc12)c1ccccc1` [Dapoxetine hydrochloride (Priligy)]: -0.337.
For `CCN(CC)C(=S)SSC(=S)N(CC)CC` [Disulfiram (Antabuse)], the log2 surviving fraction was -7.96.
The same measure for `Cc1nc2c([nH]1)-c1ccccc1N(C(=O)c1ccc(NC(=O)c3ccccc3-c3ccccc3)cc1)CC2` [Conivaptan HCl (Vaprisol)]: -1.19.
For the compound `Cn1c(=O)c2c(ncn2CC(O)CO)n(C)c1=O` (centres undefined) [Dyphylline (Dilor)], the log2 surviving fraction is -0.136.
Regarding `COC(=O)/C=C/C(=O)OC` [Dimethyl Fumarate], the log2 surviving fraction was determined as 0.742.
As for `CC(=O)OCC(=O)[C@@]1(O)[C@H](C)C[C@H]2[C@@H]3CCC4=CC(=O)C=C[C@]4(C)[C@@]3(F)[C@@H](O)C[C@@]21C` [Dexamethasone acetate], the log2 surviving fraction stood at 1.36.
To `CC1C=CC=CCCC=CC=CC=CC=CC(OC2OC(C)C(O)C(N)C2O)CC2OC(O)(CC(O)C(O)CCC(O)CC(O)CC(O)CC(=O)OC(C)C(C)C1O)CC(O)C2C(=O)O` (centres undefined) [Nystatin (Mycostatin)] belongs 0.412.
In the case of `c1ccc(CN(CC2=NCCN2)c2ccccc2)cc1` [Antazoline HCl], the log2 surviving fraction turned out to be 0.733.
With `Nc1cc(N2CCCCC2)nc(N)[n+]1[O-]` [Minoxidil], the log2 surviving fraction came out at 0.335.
The same measure for `CCCCNc1cc(C(=O)O)cc(S(N)(=O)=O)c1Oc1ccccc1` [Bumetanide]: 0.855; for `CN1CCc2cccc3c2[C@H]1Cc1ccc(O)c(O)c1-3` [R-(-)-Apomorphine HCl Hemihydrate]: -0.9.
To `O=c1[nH]c(=O)n([C@H]2C[C@H](O)[C@@H](CO)O2)cc1I` [Idoxuridine] belongs -1.81; to `C[C@]12CC[C@H](O)CC1=CC[C@@H]1[C@@H]2CC[C@]2(C)C(=O)CC[C@@H]12` [Dehydroepiandrosterone (DHEA)], 0.65; to `O=C([O-])C(O)[C@H](O)[C@@H](O)[C@H](O)[C@H](O)CO.O=C([O-])C(O)[C@H](O)[C@@H](O)[C@H](O)[C@H](O)CO.[Ca+2]` (some centres undefined) [Calcium Gluceptate], -0.552.
`CC(=O)Nc1cc([As](=O)(O)O)ccc1O` [Acetarsone]: the log2 surviving fraction turned out to be 0.15.
To `CCn1cc(C(=O)O)c(=O)c2cc(F)c(N3CCNC(C)C3)c(F)c21` (centres undefined) [Lomefloxacin hydrochloride (Maxaquin)] belongs 0.714.
On to `COc1ccccc1OCC(O)CN1CCN(CC(=O)Nc2c(C)cccc2C)CC1` (centres undefined) [Ranolazine dihydrochloride], for which the log2 surviving fraction is -0.157.
Consider `CC1=NN(c2ccc(C)c(C)c2)C(=O)/C1=N\Nc1cccc(-c2cccc(C(=O)O)c2)c1O`, for which the log2 surviving fraction was -4.46.
`CC(CCc1ccc(O)cc1)NCC(O)c1ccc(O)cc1` (centres undefined) [Ractopamine HCl]: the log2 surviving fraction is -0.354.
On to `N#Cc1c(N(CC(=O)O)CC(=O)O)sc(C(=O)O)c1CC(=O)O` [Strontium ranelate (Protelos)], for which the log2 surviving fraction stood at 0.839.
As for `CO[C@H]1/C=C/O[C@@]2(C)Oc3c(C)c(O)c4c(O)c(c(/C=N/N5CCN(C6CCCC6)CC5)c(O)c4c3C2=O)NC(=O)/C(C)=C\C=C\[C@H](C)[C@H](O)[C@@H](C)[C@@H](O)[C@@H](C)[C@H](OC(C)=O)[C@@H]1C` [Rifapentine (Priftin)], the log2 surviving fraction is -1.27.
Turning to `COc1cc(/C=C/C(=O)CC(=O)/C=C/c2ccc(O)c(OC)c2)ccc1O` [Curcumin], the log2 surviving fraction was -1.11.
Take `CC1(C)S[C@@H]2[C@H](NC(=O)Cc3ccccc3)C(=O)N2[C@H]1C(=O)O` [Benzylpenicillin sodium]: the log2 surviving fraction was determined as 0.0147.
As for `C=CCNC(N)=S` [Allylthiourea], the log2 surviving fraction amounted to 0.98.
With `CCN(CC)CCOC(=O)C1(C2CCCCC2)CCCCC1` [Dicyclomine HCl], the log2 surviving fraction is 0.148.
To `Cn1c([N+](=O)[O-])cnc1COC(N)=O` [Ronidazole] belongs -0.245.
Turning to `CCCCOc1cc(C(=O)OCCN(CC)CC)ccc1N` [Oxybuprocaine HCl], the log2 surviving fraction is 0.929.
Turning to `NC(=O)OCC(COC(N)=O)c1ccccc1` [Felbamate], the log2 surviving fraction is -0.0687.
To `CC[C@H]1CN2CCc3cc(OC)c(OC)cc3[C@@H]2C[C@@H]1C[C@H]1NCCc2cc(OC)c(OC)cc21` [Emetine] belongs -8.47; to `Cc1ccccc1N1C(=O)c2cc(S(N)(=O)=O)c(Cl)cc2NC1C` (centres undefined) [Metolazone (Zaroxolyn)], -0.18.

The record behind these values is the supplement of paper PMC8047034.
